# Whole data set: some 33,000 sequences, median “E-score (-0.5 to 0.5)” near -0.012, cut for the highest 2% near 0.29. This is one part of the list.
# Target: T1, Ybr033w (UniProt P38073)
# T1 sequence: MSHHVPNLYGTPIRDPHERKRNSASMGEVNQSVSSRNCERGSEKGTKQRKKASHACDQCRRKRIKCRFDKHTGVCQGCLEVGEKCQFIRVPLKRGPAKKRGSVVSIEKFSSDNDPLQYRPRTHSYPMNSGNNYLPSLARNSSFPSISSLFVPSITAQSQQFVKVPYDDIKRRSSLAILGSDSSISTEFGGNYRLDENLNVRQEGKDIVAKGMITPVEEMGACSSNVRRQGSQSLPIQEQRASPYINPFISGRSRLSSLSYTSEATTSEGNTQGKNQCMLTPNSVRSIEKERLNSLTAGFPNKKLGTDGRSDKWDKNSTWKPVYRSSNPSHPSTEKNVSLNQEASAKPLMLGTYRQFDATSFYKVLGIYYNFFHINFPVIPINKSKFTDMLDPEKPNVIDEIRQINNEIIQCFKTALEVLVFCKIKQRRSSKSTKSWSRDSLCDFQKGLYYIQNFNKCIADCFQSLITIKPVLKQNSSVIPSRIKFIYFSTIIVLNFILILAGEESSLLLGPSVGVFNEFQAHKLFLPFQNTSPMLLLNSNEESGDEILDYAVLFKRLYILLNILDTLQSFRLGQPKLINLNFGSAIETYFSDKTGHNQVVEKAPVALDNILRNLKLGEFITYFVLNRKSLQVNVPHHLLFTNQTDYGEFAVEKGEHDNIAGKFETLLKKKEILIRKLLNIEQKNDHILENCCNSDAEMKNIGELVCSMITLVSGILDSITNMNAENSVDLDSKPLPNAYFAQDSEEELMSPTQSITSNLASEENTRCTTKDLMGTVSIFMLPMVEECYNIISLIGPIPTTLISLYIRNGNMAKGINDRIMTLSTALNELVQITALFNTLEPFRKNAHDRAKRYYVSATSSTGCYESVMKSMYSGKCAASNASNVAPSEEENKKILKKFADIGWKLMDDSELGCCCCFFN
# Test: PBM E-score (8-mer binding enrichment) (E-score (-0.5 to 0.5)); higher = stronger / more preferred TF binding; most listed sequences are background and not binding sites
# Details: protein concentration: 200 nM; construct: GST-full length
# Procedure, shortened: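 Universal all-10-mer Agilent arrays, double-stranded by primer extension on fresh or once-stripped slides, were probed with about 100-200 nM GST-tagged yeast transcription factors made by PURExpress. Fluorescent anti-GST detected bound protein, and masliner normalised the scans. E-scores from the Universal PBM Analysis Suite were given to each ungapped eight-base word pooled with its reverse complement.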
row,Sequence,PBM E-score
1,ATGACTCG,-0.0516
2,GGATTGCC,-0.0243
3,ATTTAAAT,0.227
4,ATTTCGGC,0.11
5,CCCTTTGC,-0.134
6,CAGCTGCC,-0.163
7,AGTGTTTA,0.277
8,AGCCAAGA,-0.111
9,TCCGATCA,0.164
10,GTCAGTGA,-0.159
11,CACTACGG,-0.0837
12,ACGACGGC,-0.325
13,ACATATAT,0.258
14,ACTTTGCC,-0.125
15,AGTGACGG,0.0535
16,GTATATAA,0.168
17,ATTGGACG,0.00995
18,AGAGAAAA,0.165
19,ACGTAATC,0.00761
20,CTTCCGTA,0.144
21,CAATGTCA,0.218
22,ACTATCGG,0.0365
23,TCACGGCA,-0.133
24,CCGAGGCG,-0.187
25,ACCCCTGA,-0.215

row,Sequence,PBM E-score
1,AACCCCGG,-0.178
2,ATGGATTC,-0.102
3,CCACATCA,-0.00104
4,ACTCTGTG,-0.109
5,AAAAAAGT,0.353
6,CTGTAACA,0.0583
7,AATTGAGT,0.204
8,CGGTGCCC,-0.278
9,AAGGTCAT,0.0234
10,CTTAGTTA,0.115
11,ACAGTCGG,-0.121
12,ATCCAAGG,-0.0334
13,GGATGACA,-0.124
14,AGTCCTAA,0.00097
15,TAACACGA,0.138
16,TGGACTAA,-0.0499
17,AGCAAAAA,0.319
18,ACACACGT,0.0046
19,CTGGGACC,-0.267
20,CCGCGATC,-0.045
21,ACTGTGAC,0.0498
22,GGCAAGCA,-0.0816
23,AACCATAG,0.0244
24,CTGCTCAA,-0.0974
25,CATTCCAC,0.0456

row,Sequence,PBM E-score
1,GGCTTAGA,-0.0593
2,AACTCCAG,0.0269
3,ATTTAAAG,0.227
4,AATAAGGA,0.0483
5,ACTTCACT,0.168
6,AGTTGGCA,0.0579
7,GTGATAGA,0.0453
8,GCAATGAA,0.202
9,GCGGAAGC,-0.201
10,ATCCTCGC,0.0364
11,CGCGCGCA,-0.0239
12,GCACGTCC,-0.152
13,AACGGGAC,-0.227
14,TGTTCTAA,0.181
15,CACCCCGA,-0.0672
16,CCTAGAGG,-0.298
17,AAGTTACT,0.194
18,GTTGACCA,0.0248
19,CGTACGGA,-0.0401
20,ACTATACC,0.0721
21,ACCCGGGC,-0.234
22,ATAAGCAG,0.0569
23,AGCCGAGC,-0.225
24,ATATCTCG,0.101
25,CATGCGTC,-0.181

row,Sequence,PBM E-score
1,CGGTATGA,0.0788
2,GAGCGTCA,-0.123
3,GAGCGAAC,-0.131
4,TCAATACA,0.134
5,ATAACACC,0.172
6,GTGTGCTA,0.0165
7,AGCGAGTG,0.126
8,AATGAAAG,0.0828
9,AAGAGTCA,-0.00704
10,AGTCGACG,0.155
11,AGAGCACC,-0.268
12,GCCGTGAA,-0.0874
13,TGGCGCAA,-0.119
14,ATTAACTC,0.291
15,GGTGTCTA,0.115
16,GGGTGAAA,0.0993
17,AGATTAAG,0.214
18,AGGGTAGC,-0.127
19,CTACTCGA,-0.00166
20,AATTAGCA,0.199
21,TCACCGAA,-0.00463
22,ACGTGATA,0.0992
23,AAAAAAGA,0.0787
24,ACCGAAAG,-0.0543
25,CATACTCG,-0.0918

row,Sequence,PBM E-score
1,AGACAGCA,-0.00375
2,TACTACAA,0.217
3,AAGTGTTA,0.0887
4,ACATAAAC,0.277
5,AGCGGACA,-0.0457
6,ATTAACGC,0.0302
7,TCGCCAGA,0.00477
8,AATAAACC,0.213
9,AAATGGTT,0.0633
10,AATATAAC,0.216
11,CGCCCGAC,-0.156
12,ATGGGCCA,-0.117
13,ACACGAGA,-0.172
14,CAGTCCAA,-0.213
15,ACGAGAAG,-0.208
16,GTAGGATA,-0.0115
17,CTAGTACC,-0.152
18,ATGAAGTC,0.048
19,TAAGCATA,0.128
20,AATCCACG,-0.0107
21,CAACGTGA,-0.0799
22,CCCGAGTC,-0.111
23,CCGCGCCG,-0.225
24,ATGATGCG,0.0945
25,TACGTTCA,0.137

row,Sequence,PBM E-score
1,CACACCAC,0.126
2,AATCCTTC,-0.00057
3,ATGCGCGG,-0.134
4,AAACTGCG,-0.0825
5,GTTTGTTA,0.145
6,ATGGCAGA,0.0056
7,ATTGATCG,0.13
8,TACATATA,0.249
9,CCATCTTC,0.132
10,TCACAGGA,0.0968
11,TGTTGTAA,0.139
12,AGACTAGA,-0.235
13,ACACCAAC,-0.0973
14,GGTCCGAA,-0.0173
15,ACGCTACA,0.0427
16,GCGGAACC,-0.0564
17,ATTTACAA,0.31
18,ATAACTTG,0.216
19,TCCGTCAA,0.0892
20,AATAACCG,-0.0165
21,AATTTCAG,-0.0419
22,CCTTGCCC,-0.0551
23,AAAACTTA,0.362
24,AGCCAAGG,0.00307
25,CTAGTCGC,-0.19

row,Sequence,PBM E-score
1,CTAGACAA,-0.0833
2,CAGGAACA,0.401
3,ACGGCCCC,-0.295
4,ACAGCAAG,0.228
5,GAAGCGGC,-0.317
6,AACTAGCC,0.112
7,GACGTGAA,-0.0824
8,AGGGGGGC,-0.417
9,ACCTTCCT,-0.196
10,CCGTAGAC,-0.079
11,AACCCCTC,-0.178
12,CAATAACG,0.0288
13,CCCGATAA,-0.276
14,TCTGTGAA,0.157
15,TATATTCA,0.303
16,GTATTGCA,0.0942
17,CCAAGTGG,0.0212
18,CGCTCGGA,0.0245
19,TAGTACCA,0.0533
20,CAGTTATA,0.074
21,CGGCGCGC,-0.0829
22,ATCCAAAC,0.169
